Results are given in words; binding and its absence hold for the method and conditions named. Binding seen in cells or lysates may run through a third protein. Some results given as binding are weak or reduced against the parent protein; the word gives no strength. For part of these data: Sequences can lack the tags named with a protein.
Assays:
[1] = target: full-length ^FLAGheIF2γ expressed in yeast (human) (UniProt P41091); test: co-IP; human FLAG-eIF2γ (full length or 1-457) coexpressed with human MYC-eIF2α, HA-eIF2β and MYC-Cdc123 in yeast; anti-FLAG IP, Western blot
[2] = target: ^FLAGheIF2γ (amino acids 1–457) expressed in yeast (human) (UniProt P41091); test: as above
[3] = target: ^FLAGheIF2γ in Flp-In T-REx-293 cells (human) (UniProt P41091); test: co-IP; Flp-In T-REx-293 cells with FLAG-heIF2γ or FLAG-hCdc123; around 8 mg lysate (150 mM NaCl, 50 mM Tris-HCl pH 8.2, 1% Triton X-100) on M2 anti-FLAG matrix, 2 h, 4 °C, eluted with 3x FLAG peptide; enrichment from extract to IP, heIF2γ set to 100% (n = 1)
[4] = target: T1, N-terminally 3xFLAG-tagged Sui2 L205E (S. cerevisiae) (UniProt P20459); test: co-IP; N-terminally 3xFLAG-tagged Sui2 variants (TEF2 promoter) precipitated with anti-FLAG beads from yeast extract; Western blot for myc-Cdc123, Gcd11 and Sui3
T1 sequence: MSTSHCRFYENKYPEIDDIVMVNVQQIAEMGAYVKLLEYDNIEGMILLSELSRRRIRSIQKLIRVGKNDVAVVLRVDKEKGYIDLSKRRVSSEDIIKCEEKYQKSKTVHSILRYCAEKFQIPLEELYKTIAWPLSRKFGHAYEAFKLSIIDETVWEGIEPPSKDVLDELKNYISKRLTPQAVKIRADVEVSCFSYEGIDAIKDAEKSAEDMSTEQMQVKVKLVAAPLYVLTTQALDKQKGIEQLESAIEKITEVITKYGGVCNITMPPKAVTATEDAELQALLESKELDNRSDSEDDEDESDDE

Sequences of proteins named here, by UniProt entry; tags and fusion partners are left off. A change or cut given only in a name is not applied to a line headed by its entry. Residues count along the entry.
UniProt P41091: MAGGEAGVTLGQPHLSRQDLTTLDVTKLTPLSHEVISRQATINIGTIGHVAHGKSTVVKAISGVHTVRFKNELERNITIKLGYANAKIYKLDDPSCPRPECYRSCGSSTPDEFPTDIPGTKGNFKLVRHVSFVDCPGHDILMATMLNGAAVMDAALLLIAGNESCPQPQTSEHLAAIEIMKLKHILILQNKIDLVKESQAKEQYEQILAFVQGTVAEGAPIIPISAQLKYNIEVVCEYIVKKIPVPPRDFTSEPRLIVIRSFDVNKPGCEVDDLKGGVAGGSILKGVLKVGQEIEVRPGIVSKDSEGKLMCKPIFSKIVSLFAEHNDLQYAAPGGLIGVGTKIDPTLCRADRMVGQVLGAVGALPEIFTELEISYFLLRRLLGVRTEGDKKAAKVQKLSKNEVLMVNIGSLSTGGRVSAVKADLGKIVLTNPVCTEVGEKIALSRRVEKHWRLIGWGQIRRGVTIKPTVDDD
^FLAGheIF2γ (amino acids 1–457) expressed in yeast: residues 1-457 of P41091
UniProt P32481: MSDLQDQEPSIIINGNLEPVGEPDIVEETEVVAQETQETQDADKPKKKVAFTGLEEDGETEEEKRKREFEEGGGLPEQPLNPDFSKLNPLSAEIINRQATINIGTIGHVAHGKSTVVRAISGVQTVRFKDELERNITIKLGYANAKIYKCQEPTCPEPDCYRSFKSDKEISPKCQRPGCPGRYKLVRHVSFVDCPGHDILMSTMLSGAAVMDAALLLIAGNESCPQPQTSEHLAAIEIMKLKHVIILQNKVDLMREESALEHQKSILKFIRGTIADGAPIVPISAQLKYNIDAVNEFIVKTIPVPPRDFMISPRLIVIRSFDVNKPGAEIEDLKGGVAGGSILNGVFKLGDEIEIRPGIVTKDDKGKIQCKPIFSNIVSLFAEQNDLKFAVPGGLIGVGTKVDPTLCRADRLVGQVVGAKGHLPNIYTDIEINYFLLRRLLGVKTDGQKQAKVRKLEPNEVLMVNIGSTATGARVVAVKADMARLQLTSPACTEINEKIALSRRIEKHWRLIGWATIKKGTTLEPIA
UniProt P05198: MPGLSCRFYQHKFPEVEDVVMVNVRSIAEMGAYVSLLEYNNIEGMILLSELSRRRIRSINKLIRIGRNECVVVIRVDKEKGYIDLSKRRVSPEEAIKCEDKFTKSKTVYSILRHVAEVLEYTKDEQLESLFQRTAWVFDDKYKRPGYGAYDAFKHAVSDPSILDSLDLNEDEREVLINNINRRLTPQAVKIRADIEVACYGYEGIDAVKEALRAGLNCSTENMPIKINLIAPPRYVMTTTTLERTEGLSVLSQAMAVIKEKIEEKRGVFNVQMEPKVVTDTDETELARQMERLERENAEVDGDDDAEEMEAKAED
UniProt O75794: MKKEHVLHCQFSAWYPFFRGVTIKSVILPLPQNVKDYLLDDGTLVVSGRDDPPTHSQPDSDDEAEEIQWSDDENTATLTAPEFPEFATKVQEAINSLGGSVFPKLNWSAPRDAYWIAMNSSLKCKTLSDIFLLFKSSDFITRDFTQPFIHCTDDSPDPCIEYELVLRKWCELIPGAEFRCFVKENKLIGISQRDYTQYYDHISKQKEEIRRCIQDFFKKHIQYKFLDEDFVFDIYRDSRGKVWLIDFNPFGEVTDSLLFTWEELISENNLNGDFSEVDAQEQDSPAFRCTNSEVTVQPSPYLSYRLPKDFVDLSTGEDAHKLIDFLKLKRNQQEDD
UniProt P20042: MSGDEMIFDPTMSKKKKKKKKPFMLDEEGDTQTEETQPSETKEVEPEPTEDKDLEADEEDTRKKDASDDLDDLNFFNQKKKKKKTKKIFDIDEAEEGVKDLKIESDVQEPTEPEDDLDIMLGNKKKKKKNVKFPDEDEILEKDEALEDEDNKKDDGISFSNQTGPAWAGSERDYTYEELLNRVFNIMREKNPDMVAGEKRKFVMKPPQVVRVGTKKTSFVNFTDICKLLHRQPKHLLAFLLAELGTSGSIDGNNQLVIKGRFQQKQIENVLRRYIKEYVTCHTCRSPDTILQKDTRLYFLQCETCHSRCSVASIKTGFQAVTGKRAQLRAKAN

[5] = target: T2, N-terminally 3xFLAG-tagged Sui2 V220E (S. cerevisiae) (UniProt P20459); test: as above
T2 sequence: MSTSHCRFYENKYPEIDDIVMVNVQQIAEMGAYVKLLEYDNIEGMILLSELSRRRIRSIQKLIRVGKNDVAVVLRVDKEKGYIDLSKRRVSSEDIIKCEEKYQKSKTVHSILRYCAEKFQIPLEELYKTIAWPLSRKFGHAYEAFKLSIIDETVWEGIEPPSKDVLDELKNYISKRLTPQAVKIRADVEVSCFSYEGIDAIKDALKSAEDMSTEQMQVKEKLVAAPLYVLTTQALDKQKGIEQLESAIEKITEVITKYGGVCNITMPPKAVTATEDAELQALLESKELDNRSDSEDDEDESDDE

[6] = target: T3, endogenously FLAG-tagged Sui2 (S. cerevisiae) (UniProt P20459); test: co-IP; endogenously FLAG-tagged Sui2, Sui3 or Gcd11 precipitated with anti-FLAG beads from yeast extract, 4 °C, 2 h; Cdc123 signal normalised to the FLAG-tagged subunit, Gcd11 set to 100% (n = 3)
T3 sequence: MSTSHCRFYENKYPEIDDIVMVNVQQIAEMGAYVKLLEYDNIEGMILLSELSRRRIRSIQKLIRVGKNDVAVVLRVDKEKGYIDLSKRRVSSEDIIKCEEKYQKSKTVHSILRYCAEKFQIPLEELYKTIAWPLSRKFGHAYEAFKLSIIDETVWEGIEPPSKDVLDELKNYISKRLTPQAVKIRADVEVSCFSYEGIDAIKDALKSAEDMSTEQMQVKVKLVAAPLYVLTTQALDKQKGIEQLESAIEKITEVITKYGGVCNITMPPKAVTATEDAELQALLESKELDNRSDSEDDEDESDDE

[7] = target: yeast eIF2γ (Gcd11) (S. cerevisiae (endogenous in W303 strains)) (UniProt P32481); test: co-IP; Cdc123-FLAG precipitated with anti-FLAG beads from yeast strains overexpressing HA-tagged Sui2 variants (or Sui3) from the GAL1 promoter, compared with endogenous levels
[8] = target: T4, C-terminally FLAG-tagged Cdc123 (S. cerevisiae, UniProt Q05791 1-360); test: as above
T4 construct: Cdc123 of S. cerevisiae; also called Cdc123^FLAG; source: S. cerevisiae, in lysate; not shown: FLAG, C-terminal, kept
T4 sequence (looked up): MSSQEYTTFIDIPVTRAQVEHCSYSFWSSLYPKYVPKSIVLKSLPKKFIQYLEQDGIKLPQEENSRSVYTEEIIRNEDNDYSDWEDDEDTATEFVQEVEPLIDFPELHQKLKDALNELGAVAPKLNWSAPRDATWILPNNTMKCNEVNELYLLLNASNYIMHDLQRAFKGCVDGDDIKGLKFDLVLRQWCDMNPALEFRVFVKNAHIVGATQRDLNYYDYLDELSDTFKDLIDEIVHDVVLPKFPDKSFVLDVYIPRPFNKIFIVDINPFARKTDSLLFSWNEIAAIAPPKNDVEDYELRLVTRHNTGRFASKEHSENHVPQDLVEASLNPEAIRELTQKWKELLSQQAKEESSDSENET

[9] = target: T5, GST-Cdc123 (S. cerevisiae) (UniProt Q05791); test: pull-down; GST-Cdc123 coexpressed with His6-Sui2 or His6-Sui3 in E. coli; lysate on glutathione agarose beads for 3 h; Western blot
T5 sequence: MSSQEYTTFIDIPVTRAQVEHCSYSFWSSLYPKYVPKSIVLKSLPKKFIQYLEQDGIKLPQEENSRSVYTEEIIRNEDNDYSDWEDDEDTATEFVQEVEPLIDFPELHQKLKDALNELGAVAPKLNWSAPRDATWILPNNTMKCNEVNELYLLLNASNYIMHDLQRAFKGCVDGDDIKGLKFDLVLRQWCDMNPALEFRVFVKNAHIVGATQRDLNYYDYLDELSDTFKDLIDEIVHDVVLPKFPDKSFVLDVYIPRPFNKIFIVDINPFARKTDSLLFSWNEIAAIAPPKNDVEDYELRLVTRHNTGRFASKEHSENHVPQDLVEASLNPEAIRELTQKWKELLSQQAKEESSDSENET

human ^MYCeIF2α expressed in yeast (from UniProt P05198 1-315)
binding [1]: binds | binding [2]: no binding

heIF2α (endogenous) (from UniProt P05198 1-315)
binding [3]: binds

human ^MYCCdc123 expressed in yeast (from UniProt O75794 1-336)
binding [1]: binds | binding [2]: no binding

hCdc123 (endogenous) (from UniProt O75794 1-336)
binding [3]: binds

human ^HAeIF2β expressed in yeast (from UniProt P20042 1-333)
binding [1]: binds | binding [2]: no binding

heIF2β (endogenous) (from UniProt P20042 1-333)
binding [3]: binds

B1: yeast eIF2β (Sui3) (protein, UniProt P09064 1-285)
chain: MSSDLAAELGFDPALKKKKKTKKVIPDDFDAAVNGKENGSGDDLFAGLKKKKKKSKSVSADAEAEKEPTDDIAEALGELSLKKKKKKTKDSSVDAFEKELAKAGLDNVDAESKEGTPSANSSIQQEVGLPYSELLSRFFNILRTNNPELAGDRSGPKFRIPPPVCLRDGKKTIFSNIQDIAEKLHRSPEHLIQYLFAELGTSGSVDGQKRLVIKGKFQSKQMENVLRRYILEYVTCKTCKSINTELKREQSNRLFFMVCKSCGSTRSVSSIKTGFQATVGKRRRM
binding [4]: no binding | binding [5]: no binding | binding [6]: binds

B2: HA-tagged Sui2 WT, overexpressed (protein, UniProt P20459 1-304)
chain: MSTSHCRFYENKYPEIDDIVMVNVQQIAEMGAYVKLLEYDNIEGMILLSELSRRRIRSIQKLIRVGKNDVAVVLRVDKEKGYIDLSKRRVSSEDIIKCEEKYQKSKTVHSILRYCAEKFQIPLEELYKTIAWPLSRKFGHAYEAFKLSIIDETVWEGIEPPSKDVLDELKNYISKRLTPQAVKIRADVEVSCFSYEGIDAIKDALKSAEDMSTEQMQVKVKLVAAPLYVLTTQALDKQKGIEQLESAIEKITEVITKYGGVCNITMPPKAVTATEDAELQALLESKELDNRSDSEDDEDESDDE
binding [7]: binds

B3: HA-tagged Sui2 (179-304), overexpressed (domain or fragment, UniProt P20459 179-304)
chain: PQAVKIRADVEVSCFSYEGIDAIKDALKSAEDMSTEQMQVKVKLVAAPLYVLTTQALDKQKGIEQLESAIEKITEVITKYGGVCNITMPPKAVTATEDAELQALLESKELDNRSDSEDDEDESDDE
binding [7]: binds | binding [8]: binds

B4: HA-tagged Sui2 (1-178), overexpressed (domain or fragment, UniProt P20459 1-178)
chain: MSTSHCRFYENKYPEIDDIVMVNVQQIAEMGAYVKLLEYDNIEGMILLSELSRRRIRSIQKLIRVGKNDVAVVLRVDKEKGYIDLSKRRVSSEDIIKCEEKYQKSKTVHSILRYCAEKFQIPLEELYKTIAWPLSRKFGHAYEAFKLSIIDETVWEGIEPPSKDVLDELKNYISKRLT
binding [8]: binds

B5: His6-Sui2 (protein, UniProt P20459 1-304)
chain: MSTSHCRFYENKYPEIDDIVMVNVQQIAEMGAYVKLLEYDNIEGMILLSELSRRRIRSIQKLIRVGKNDVAVVLRVDKEKGYIDLSKRRVSSEDIIKCEEKYQKSKTVHSILRYCAEKFQIPLEELYKTIAWPLSRKFGHAYEAFKLSIIDETVWEGIEPPSKDVLDELKNYISKRLTPQAVKIRADVEVSCFSYEGIDAIKDALKSAEDMSTEQMQVKVKLVAAPLYVLTTQALDKQKGIEQLESAIEKITEVITKYGGVCNITMPPKAVTATEDAELQALLESKELDNRSDSEDDEDESDDE
binding [9]: binds

B6: His6-Sui3 (protein, UniProt P09064 1-285)
chain: MSSDLAAELGFDPALKKKKKTKKVIPDDFDAAVNGKENGSGDDLFAGLKKKKKKSKSVSADAEAEKEPTDDIAEALGELSLKKKKKKTKDSSVDAFEKELAKAGLDNVDAESKEGTPSANSSIQQEVGLPYSELLSRFFNILRTNNPELAGDRSGPKFRIPPPVCLRDGKKTIFSNIQDIAEKLHRSPEHLIQYLFAELGTSGSVDGQKRLVIKGKFQSKQMENVLRRYILEYVTCKTCKSINTELKREQSNRLFFMVCKSCGSTRSVSSIKTGFQATVGKRRRM
binding [9]: no binding
